The results in this text go back to patent publication US20110178118A1, “PALONOSETRON FOR THE TREATMENT OF CHEMOTHERAPY INDUCED EMESES” (priority 2002, published 2011).

This test has as its system Highly Emetogenic Chemotherapy-Induced Nausea and Vomiting. In words: Phase II dose-ranging trial, single I.V. palonosetron, efficacy. As to conditions: complete control (no emesis, no rescue, mild nausea). As for the experimental part:
A randomized, double-blind, multicenter, dose-ranging Phase II trial was performed to identify the dose response relationship among single I.V. doses of palonosetron. Patients receiving highly emetogenic chemotherapy including cyclophosphamide (>1100 mg/m2) and cisplatin (>70 mg/m2), commonly associated with delayed emesis, were assigned to one of five dose groups of a single I.V. administration of palonosetron. Palonosetron was administered alone (without dexamethasone) as a 30 second intravenous injection, 30 minutes prior to chemotherapy administration. The primary endpoint was 24-hour complete responses (no emesis, no rescue) (CR). Secondary endpoints included complete control (no emesis, no rescue, mild nausea) (CC) and 5-day CR.
161 patients (32 women, 129 men) participated. […] The most commonly reported adverse events related to study medication include: headache (19.3%); constipation (8.7%), dizziness (2.5%) and abdominal pain (2.5%).

In the case of `Cl.O=C1c2cccc3c2[C@H](CCC3)CN1[C@@H]1CN2CCC1CC2` [Palonosetron, (3aS)-2,3,3a,4,5,6-Hexahydro-2-[(S)-1-Azabicyclo[2.2.2]oct-3-yl]2,3,3a,4,5,6-hexahydro-1-oxo-1Hbenz[de]isoquinoline hydrochloride], the “% CC(24 hr)” value (palonosetron 0.3-1 mcg/kg single I.V.) turned out to be 24%; the “% CC(24 hr)” value (palonosetron 3 mcg/kg single I.V.) is 39%; the “% CC(24 hr)” value (palonosetron 10 mcg/kg single I.V.) amounted to 40%; the “% CC(24 hr)” value (palonosetron 30 mcg/kg single I.V.) is listed as 48%; the “% CC(24 hr)” value (palonosetron 90 mcg/kg single I.V.) was determined as 46%.
